Out of some 130,000 compounds screened, about 1,900 (1.5%) were called active. Inconclusive means that the source gave no clear call. Such entries were picked first, then a sample of the others. The call rests on the fitted dose curve; in most records, active means well fitted cell-killing curve with a large enough effect; inconclusive means small, poorly fitted or top-dose-only effect; inactive means no such curve, though single readings can be large or run the other way. Where the call is inconclusive, the potency comes from a doubtful curve fit.
Experiment: qHTS Screen for Compounds that Selectively Target Cancer Cells with p53 Mutations: Cytotoxicity of p53ts Cells at the Nonpermissive Temperature; further: nearly all actives have a fitted effect of over 55% in size
Settings: H1299-p53A138V viability at 39C, ATP luminescence, 24 h; activity change, negative = cell killing: at 46.1 µM (top of the series)
On the % scale 0 is the no-effect control and ±100 the full control effect; potency means the concentration at half of the fitted maximal effect; tags describe the fitted curve by direction and shape.

| SMILES | Potency | activity change, negative = cell killing |
| --- | --- | --- |
| O=C(Nc1cccc2nsnc12)c1ccc2c(c1)OCCO2 | inconclusive: 12.6 µM [cytotoxic, single point] | – |
| CC(C)c1nnc(NC(=O)c2cccs2)s1 | inconclusive: 12.6 µM [cytotoxic, single point] | – |
| CCS(=O)(=O)N1CCc2cc(C(=O)Nc3cc([N+](=O)[O-])ccc3C)ccc21 | inconclusive: 2.51 µM [cytotoxic, full curve, poor fit] | – |
| COc1ccc(-c2cn3c(n2)sc2cc(C(=O)NCC(C)c4ccccc4)ccc23)cc1 (centres undefined) | inactive | – |
| CC1(C)OCC(CSC2=C(SCC3COC(C)(C)O3)C(=O)c3ncccc3C2=O)O1 (centres undefined) | inconclusive: 31.6 µM [cytotoxic, single point] | – |
| Cc1ccc(C(=O)c2cn(Cc3cc(C)ccc3C)c3nc(C)ccc3c2=O)cc1 | inconclusive: 7.94 µM [cytotoxic, partial curve] | – |
| COc1ccc(OC)c(NC(=O)CSc2c3c(nc4cc(Cl)ccc24)CCCC3)c1 | inconclusive: 25.1 µM [cytotoxic, single point] | – |
| COc1ccc(C)cc1NC(=O)C1CCC(CNS(=O)(=O)c2ccc3c(c2)CCCC(=O)N3)CC1 (centres undefined) | inconclusive: 0.0079 µM [cytotoxic, full curve] | – |
| Cc1cc(C)nc(SC2=CS(=O)(=O)c3ccccc32)n1 | inconclusive: 31.6 µM [cytotoxic, single point] | – |
| COc1ccccc1NC(=O)c1sc2nc(-c3ccco3)ccc2c1N | inactive | – |
| CC(=O)Nc1ccc(NC(=O)C(NC(=O)C2CCC(C)CC2)C(C)C)cc1 (centres undefined) | inactive | – |
| Cc1ccc(NC(=O)CN2C(=O)C(c3ccc(C)cc3)=NC23CCCCCC3)cc1 | inactive | – |
| CCc1ccc(NC(=O)c2cccc(N3CCCS3(=O)=O)c2)cc1 | inconclusive: 10 µM [cytotoxic, partial curve] | – |
| CCOc1ccc(S(=O)(=O)Nc2nc3ccccc3nc2N2CCN(C)CC2)cc1 | inconclusive: 12.6 µM [cytotoxic, single point] | – |
| CC1(C)CC(=O)CC(=Nc2ccc3[nH]c(=O)[nH]c3c2)C1 | inactive | – |
| CCN(CC)C(=O)c1sc2c(c1C)c(=O)n(CCc1ccccc1)c(=O)n2Cc1ccc(C)cc1 | inactive | – |
| CC(C)c1ccc(OCC(=O)Nc2cc(-c3ccccc3)no2)cc1 | – | inconclusive: -31.5% [cytotoxic] |
| CC(=O)Nc1ccc(S(=O)(=O)N2CCN(c3nc(NC4CCCC4)c4ccccc4n3)CC2)cc1 | inconclusive: 25.1 µM [cytotoxic, single point] | – |
| O=C(CSc1nnc2[nH]c(=O)cc(-c3ccccc3)n12)Nc1ccc(OC(F)(F)F)cc1 | inconclusive: 3.98 µM [cytotoxic, partial curve] | – |
| Cc1csc2nc(COC(=O)c3cccc(NC(=O)COc4ccccc4Cl)c3)cc(=O)n12 | inconclusive: 6.31 µM [cytotoxic, full curve] | – |
| COc1cc(C(=O)NC(c2ccccc2Cl)c2cc(Cl)c3cccnc3c2O)cc(OC)c1OC (centres undefined) | inconclusive: 3.98 µM [cytotoxic, single point] | – |
| Cc1c(CNC(C)CCc2ccccc2)c(C(=O)O)c(C)n1Cc1ccc(F)cc1 (centres undefined) | inactive | – |
| CCCN(CCC)S(=O)(=O)c1ccc(C(=O)Nc2nnc(-c3cc(OC)cc(OC)c3)o2)cc1 | inconclusive: 1.26 µM [cytotoxic, full curve] | – |

| SMILES | Potency | activity change, negative = cell killing |
| --- | --- | --- |
| COc1cccc(N2CCN(C(=O)CCSCc3ccccc3F)CC2)c1 | inconclusive: 1 µM [cytotoxic, full curve, poor fit] | – |
| CC1CCN(c2nc(-c3ccc(C(C)(C)C)cc3)nc3ccccc23)CC1 | active: 10 µM | – |
| COc1ccc(-c2cnn(-c3ccccc3)c2N)cc1OC | inactive | – |
| COc1ccc(CCNc2nc(C)nc3c2oc2ccccc23)cc1OC | inactive | – |
| [O-]/[N+](=N\O)c1ccccc1 | inactive | – |
| COc1ccccc1NC(=O)CSc1oc(-c2ccco2)nc1S(=O)(=O)c1ccc(C)cc1 | inactive | – |
| CCOc1ccc2nc(N3CCCC(C(=O)Nc4ccc(OC)cc4)C3)sc2c1 (centres undefined) | inconclusive: 15.8 µM [cytotoxic, partial curve] | – |
| O=C(c1cc(-c2cccc(O)c2)on1)N1CCOCC1 | inconclusive: 12.6 µM [cytotoxic, partial curve] | – |
| Cc1ccc(C)c(NC(=O)Cc2coc3cc(C)cc(C)c23)c1 | inactive | – |
| CCc1ccccc1NC(=O)Cn1nnc2sc3c(c2c1=O)CCC(C(C)(C)C)C3 (centres undefined) | inconclusive: 2.51 µM [cytotoxic, full curve] | – |
| O=C(c1cc2ccc3cccnc3c2[nH]1)N1CCCCC1 | active: 0.631 µM | – |
| COc1ccc(C)cc1NS(=O)(=O)c1cnc(N)nc1 | inconclusive: 0.0158 µM [cytotoxic, full curve, poor fit] | – |
| Cc1nc(NC(=O)c2csc3ccccc23)sc1C | inconclusive: 12.6 µM [cytotoxic, partial curve] | – |
| O=C(Cn1ncc2c3ccccc3n(Cc3ccccc3F)c2c1=O)N1CCCCCC1 | inconclusive: 0.0501 µM [cytotoxic, full curve, poor fit] | – |
| O=C(COc1ccc(Cl)cc1)Nc1nc(-c2cccs2)cs1 | inconclusive: 3.16 µM [cytotoxic, full curve, poor fit] | – |
| CCCCC(=O)Nc1cc2nn(-c3ccc(OC)cc3)nc2cc1C | inactive | – |
| Cc1ccccc1OC(=O)c1cc(-c2ccc3c(c2)OCCO3)on1 | inconclusive: 25.1 µM [cytotoxic, single point] | – |
| O=C(OCc1cc(=O)n2nc(-c3cccs3)sc2n1)c1cccc(F)c1 | inactive | – |
| CC(C)CCN(C(=O)Nc1ccc(Cl)c(Cl)c1)C1CCN(C(C)C)CC1 | inconclusive: 0.01 µM [cytotoxic, full curve] | – |
| COCC(=O)N1CCC2(CC1)CCN(C(=O)Nc1cccc(F)c1)CC2 | inactive | – |
| Cc1ccccc1-c1nc2ccccc2[nH]1 | inactive | – |
| Cc1ccc(NC(=O)c2ccc3ccccc3n2)nc1 | inconclusive: 10 µM [cytotoxic, partial curve] | – |
| COc1ccc(OCc2cccc(C(=O)O)c2)cc1 | active: 5.01 µM | – |

| SMILES | Potency | activity change, negative = cell killing |
| --- | --- | --- |
| O=C(/C=C/c1cccs1)Nc1cccc(NC(=O)/C=C/c2cccs2)n1 | inconclusive: 20 µM [cytotoxic, partial curve, poor fit] | – |
| N#Cc1ccccc1NC(=O)CSc1nc(-c2ccccc2)cc(C(F)(F)F)c1C#N | inconclusive: 12.6 µM [cytotoxic, partial curve, poor fit] | – |
| C[N+](C)(C)[C@H](Cc1c[nH]c(=S)[nH]1)C(=O)O | – | inactive: 0.0827% [at 9.22 µM] |
| COc1ccc(NC(=O)c2ccc3oc(=O)c(S(=O)(=O)c4ccc(F)cc4)cc3c2)cc1OC | inconclusive: 25.1 µM [cytotoxic, single point] | – |
| COc1ccc(-c2noc(CCCC(=O)Nc3cccc(Cl)c3C)n2)cc1 | inconclusive: 31.6 µM [cytotoxic, single point] | – |
| COc1ccc(N(Cc2ccccc2)C(=O)c2nc(S(C)(=O)=O)ncc2Cl)cc1 | active: 3.98 µM | – |
| COc1ccc(C2CC(=O)c3c([nH]c(C(=O)OCc4ccccc4)c3C)C2)cc1 (centres undefined) | inconclusive: 25.1 µM [cytotoxic, single point] | – |
| CCc1ccc(C(=O)CC2(O)C(=O)N(CCc3ccccc3)c3ccc(Br)cc32)cc1 (centres undefined) | inconclusive: 25.1 µM [cytotoxic, single point] | – |
| CC(=O)Nc1ccc(N/C=C/C(=O)c2ccco2)cc1 | inconclusive: 20 µM [cytotoxic, partial curve] | – |
| CCc1ccc(NCc2cc3ccc(OC)cc3n(CC(=O)Nc3ccccc3C)c2=O)cc1 | inconclusive: 2 µM [cytotoxic, partial curve] | – |
| Fc1ccc(Nc2nc(SCc3ccccc3Cl)nc3ccccc23)cc1 | inconclusive: 25.1 µM [cytotoxic, single point] | – |
| C[C@]12C=CC(=O)C=C1CC[C@@H]1[C@H]3C[C@@H](O)[C@](O)(C(=O)CO)[C@@]3(C)C[C@H](O)[C@]12F | inactive | – |
| Cc1[nH]n(-c2ccccc2)c(=O)c1/C=N\NC(=O)C1COc2ccccc2O1 (centres undefined) | active: 14.1 µM | – |
| COc1ccc(CSc2nc3ccncc3n2CC(=O)Nc2cc(C)cc(C)c2)cc1 | inconclusive: 10 µM [cytotoxic, partial curve] | – |
| O=C(Cn1c(=O)n(-c2ccc(F)cc2)c(=O)c2sc3ccccc3c21)NC1CCCC1 | inconclusive: 15.8 µM [cytotoxic, single point] | – |
| Cc1cccc(NC(=O)Cn2c(=O)n(Cc3ccccc3)c(=O)c3sc4ccccc4c32)c1 | inconclusive: 15.8 µM [cytotoxic, single point] | – |
| COC(=O)c1ccc(NC(=O)CN2CCCN(Cc3ccc(Cl)cc3)S2(=O)=O)cc1 | inactive | – |
| CCn1c(SCC(=O)Nc2ccc3c(c2)OCCO3)nnc1-c1ccccn1 | inconclusive: 12.6 µM [cytotoxic, single point] | – |
| CN(C)CCNC(=O)c1ccc(-n2c(-c3ccccc3)cc3c2CCCCC3)cc1 | inconclusive: 0.0126 µM [cytotoxic, full curve] | – |
| Cc1ccc(CN(Cc2ccco2)C(=O)c2ccc(Cl)cc2Cl)cc1 | inconclusive: 25.1 µM [cytotoxic, single point] | – |
| Cc1cccc(NC(=O)CSc2ncc(-c3ccc(Br)cc3)[nH]2)c1 | active: 12.6 µM | – |
| CC(=O)c1cccc(NC(=O)Nc2c(C)n(C)n(-c3ccccc3)c2=O)c1 | inactive | – |
| COc1ccc(C(=O)Nc2cccc(-c3cn4ccsc4n3)c2)c(OC)c1 | inconclusive: 15.8 µM [cytotoxic, partial curve] | – |

Reference: PubChem BioAssay AID902 (National Center for Advancing Translational Sciences (NCATS), 2007)
